# Hit rate of the full screen: of about 340,000 compounds, about 12,000 (3.5%) were called active. Inconclusive means that the source gave no clear call. Such entries were picked first, then a sample of the others. Calls come from the whole dose curve; as a rule, active = well fitted inhibition curve with a large enough effect; inconclusive = small, poorly fitted or top-dose-only effect, or another doubt; inactive = no such curve, though single readings can be large or run the other way. Potencies of inconclusive entries are left out as doubtful fits.
# Test: qHTS Assay for Inhibitors of Hepatitis C Virus (HCV)
# Settings: Huh7.5.1 HCVcc-Cre (HCVcc is cell-culture hepatitis C virus) infection, luciferase reporter, 44 h; activity change, negative = inhibition: at 41.8 µM (top of the series)
# How it was run: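 Cells (1,000/well) were plated 4 h before compound, then infected with HCVcc-Cre virus (~0.5 moi). After 44 h further culture, infection was read as luciferase luminescence following a 15 min substrate incubation at room temperature.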
# % is set by controls: 0 for no effect and ±100 for the full control effect; potency is the fitted concentration of half-maximal effect; tags give direction and shape of the fitted curve.
Structure (SMILES),"activity change, negative = inhibition",Potency
O=C(N/N=C\c1ccc2c(c1)OCO2)c1ccc(Cn2cc(Br)c([N+](=O)[O-])n2)o1,inactive: -2.09%,
COc1ccc(CN(C)C(=O)c2ccccc2Sc2ccccc2C#N)cc1OC,,"inconclusive [inhibitor, single point]"
C#CCNC(=O)C1=C[C@@H](C2CCCCC2)C[C@@H](OCc2ccc(CO)cc2)O1,,"inconclusive [inhibitor, single point]"
O=C(COC(=O)CCSc1ccc(Cl)cc1)Nc1ccc(F)cc1,inactive: 11.9%,
COc1cc2nc(CN3CC=C(c4ccccc4)CC3)[nH]c(=O)c2cc1OC,,active: 3.55 µM
COc1ccc(CN2CCN(S(=O)(=O)c3ccc(F)cc3)CC2)c(OC)c1OC,,"inconclusive [inhibitor, single point]"
CS(=O)(=O)N1CCN(c2ccccc2NC(=O)c2ccc(-c3ccc(Br)cc3)o2)CC1,,active: 6.31 µM
COc1ccccc1N1CCN(C(=O)c2ccc(N(C)S(=O)(=O)c3ccccc3)cc2)CC1,,"inconclusive [inhibitor, partial curve]"
Cc1nc(CC(=O)O)c(-c2ccccc2)s1,inactive: 8.61%,
COC(=O)[C@@]12CCCN1[C@H](c1ccc(-c3ccc(F)cc3)cc1)[C@H]1C(=O)N(C)C(=O)[C@H]12,,"inconclusive [inhibitor, single point]"
COc1ccc(OC)c(/C=N/NC(=O)c2ccc(N(C)S(=O)(=O)c3ccccc3)cc2)c1,,"inconclusive [inhibitor, partial curve]"
Cc1ccnc(NC(=O)CNC(=O)c2ccc3ccccc3c2)c1,,"inconclusive [inhibitor, partial curve]"
Cn1nccc1C(=O)Nc1ccn(C23CC4CC(CC(C4)C2)C3)n1,,"inconclusive [inhibitor, single point]"
CCn1c2ccccc2c2cc(NC(=O)c3cc(C)on3)ccc21,,active: 14.1 µM
C=CCOc1c(Br)cc(CNc2ccc3[nH]c(=O)[nH]c3c2)cc1OCC,,"inconclusive [inhibitor, full curve, poor fit]"
O=C(NCc1cccs1)c1cc(S(=O)(=O)N2CCOCC2)c(Cl)cc1Cl,,"inconclusive [inhibitor, partial curve]"
Cc1cc(-n2c(C)cc(C(=O)CSc3nc4ccccc4c(=O)n3Cc3ccco3)c2C)no1,,"inconclusive [inhibitor, single point]"
CCC1(C)Cc2c(sc3nc(SC)nc(NCCN(C)C)c23)CO1 (stereo not drawn),,"inconclusive [inhibitor, partial curve]"
O=C(Nc1ccc(Cl)c(Cl)c1)c1ccc(Cn2cc(Cl)cn2)cc1,,"inconclusive [inhibitor, partial curve]"
CC1CCN(CCc2nc3cc(NC(=O)C(C)C)ccc3n2C)CC1,,"inconclusive [inhibitor, single point]"
CCOC(=O)N1CCN(C(=O)COC(=O)CNC(=O)c2ccc(OCC)c(OCC)c2)CC1,,"inconclusive [inhibitor, single point]"
CCOC(=O)c1ccc(NC(=O)CN(c2ccc(C)cc2)S(=O)(=O)c2c(C)n[nH]c2C)cc1,,"inconclusive [inhibitor, single point]"

Structure (SMILES),"activity change, negative = inhibition",Potency
CC(OC(=O)c1ccc2c(c1)OCO2)C(=O)NC1CCCCC1C (stereo not drawn),,"inconclusive [inhibitor, partial curve]"
CSCCC(NC(=O)c1ccc(Cl)cc1Cl)C(=O)N(C)Cc1nc2ccccc2c(=O)[nH]1 (stereo not drawn),,"inconclusive [inhibitor, single point]"
O=C1NC(Cc2c[nH]c3ccccc23)C(=O)N1CCOc1ccccc1 (stereo not drawn),inactive: 11.9%,
COc1cc(OC)cc(-c2cc(N)n(S(=O)(=O)c3cccc4nsnc34)n2)c1,,"inconclusive [inhibitor, single point]"
CN(C)c1cccc(C(=O)NCc2ccc(Cl)cc2)c1,inactive: -0.151%,
CCn1c(C)c(CS(=O)(=O)c2ccccc2)[nH]c1=O,inactive: -0.116%,
COc1ccc(-c2noc(N3CCC(C(=O)NCCCN4CCCC(C)C4)CC3)n2)cc1 (stereo not drawn),,"inconclusive [inhibitor, partial curve]"
COc1ccc(-c2cc(-c3c(O)c(OC)c4occc4c3OC)[nH]n2)cc1OC,,active: 11.2 µM
C/C(=N\Nc1nc(C)cc(-c2ccccc2)n1)c1ccccc1,,active: 15.8 µM
c1ccc(-c2noc(-c3ccco3)n2)nc1,inactive: 14%,
O=C(NCC1CCCO1)c1ccc2c(c1)N(Cc1ccc(F)cc1Cl)C(=O)CS2 (stereo not drawn),,"inconclusive [inhibitor, single point]"
COc1ccc(-c2nc3ccccc3n2Cc2ccc(C)cc2)cc1,,"inconclusive [inhibitor, single point]"
COc1ccc(NC(=O)c2cc3nc(-c4ccccc4)cc(C)n3n2)cc1OC,,"inconclusive [inhibitor, partial curve]"
Cn1c(=O)[nH]c(=O)c2c1nc1n2CCN1Cc1ccccc1,,"inconclusive [inhibitor, single point]"
Nc1nc(CN2CCc3ccccc3C2)nc(Nc2ccccc2)n1,,"inconclusive [inhibitor, single point]"
CC1C(=NO)C(C)C(c2ccccc2)NC1c1ccccc1 (stereo not drawn),inactive: 12%,
Cc1cccc(-c2cc3nc(C)cc(NCCCn4ccnc4)n3n2)c1,,"inconclusive [inhibitor, single point]"
COc1ccc(-c2coc3cc(O)c(OC)cc3c2=O)cc1,,"inconclusive [inhibitor, partial curve, poor fit]"
COc1cccc(/C=N/NC(=O)CSc2cccc3cccnc23)c1,,"inconclusive [inhibitor, single point]"
O=C(Cc1ccc(Br)cc1)NCc1ccccc1,,"inconclusive [inhibitor, single point]"
Cc1cccc(CN2CCN(C(=O)CCl)CC2)c1,,"inconclusive [inhibitor, single point]"

# From PubChem BioAssay AID651820 (National Center for Advancing Translational Sciences (NCATS), 2012)
